# According to the supplement of paper PMC3334620:
# In all, about 33,000 sequences were measured (“E-score (-0.5 to 0.5)”: median about -0.017, highest 2% from about 0.3 on). The list shows a part of the results.
# Target: T1, Sut1 (UniProt P53032)
# T1 sequence: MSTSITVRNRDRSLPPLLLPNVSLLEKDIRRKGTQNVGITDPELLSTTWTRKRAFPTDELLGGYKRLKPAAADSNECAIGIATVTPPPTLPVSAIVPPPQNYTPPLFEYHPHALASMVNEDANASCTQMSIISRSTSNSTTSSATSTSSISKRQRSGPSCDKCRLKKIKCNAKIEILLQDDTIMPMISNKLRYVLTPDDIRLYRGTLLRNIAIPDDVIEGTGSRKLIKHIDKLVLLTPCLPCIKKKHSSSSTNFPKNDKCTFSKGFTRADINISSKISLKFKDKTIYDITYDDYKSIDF
# Test: PBM E-score (8-mer binding enrichment) (E-score (-0.5 to 0.5)); higher = stronger / more preferred TF binding; most listed sequences are background and not binding sites
# Conditions: protein concentration: 200 nM; construct: GST-full length
# Outline: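 Masliner-normalised scans of fluorescent anti-GST signal were the basis for scoring. That signal came from GST-tagged yeast transcription factors applied at about 100-200 nM to double-stranded universal all-10-mer Agilent arrays on fresh or once-stripped slides. Each ungapped eight-base word, pooled with its reverse complement, received an E-score from the Universal PBM Analysis Suite.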
row,Sequence,PBM E-score
1,ACGTAGGG,-0.298
2,GCTTCGAC,-0.218
3,ATAGGCTG,-0.182
4,ACTATGTC,0.041
5,AGCCTTGC,-0.254
6,AGTCAGGG,-0.315
7,CAAGTGGA,-0.0423
8,CCTGAGGA,-0.154
9,CGTACTAC,0.0559
10,AATCTGGT,0.047
11,CACAACAA,0.118
12,AGCCGGAT,0.125
13,AAACTTTA,0.219
14,CGTAGAAA,0.131
15,GAAACTTA,0.307
16,CAGTCGCC,-0.063
17,TGAACCCA,-0.00171
18,AGATTCAT,0.0265
19,AGGAAGCA,0.00387
20,AGTTTTTA,0.175
21,AATAGGTG,-0.066
22,ACCCCTAC,-0.29
23,AAAAACAT,0.101
24,AGCCCTAT,-0.184
25,CTTACACC,-0.0956

row,Sequence,PBM E-score
1,CTTGGACA,-0.0984
2,AAGTATTA,0.0998
3,GCTCAGCA,-0.124
4,TAGTCCGA,0.48
5,GACCAAAC,-0.209
6,ACACCCGC,-0.0186
7,CCGCGAAC,0.0271
8,AACAGTTA,0.132
9,AGAGGAGC,-0.138
10,AATCCATG,0.0261
11,ACGCGCCG,-0.0981
12,ATCGTCCG,0.0218
13,AAATTCAT,0.184
14,CACCCGTA,-0.0523
15,ACTTCATG,-0.0674
16,ACAGCCAC,0.00395
17,CACCCTGG,-0.306
18,CCTCATGC,-0.138
19,GAGGGAAA,-0.141
20,GCTACGCC,-0.318
21,CTCCCATA,-0.259
22,ATCTCTTG,-0.16
23,AGGGCACT,-0.264
24,CCGTAACC,0.0585
25,ATTGCAGA,0.062

row,Sequence,PBM E-score
1,CCCAGACG,-0.292
2,CCCCTTTA,-0.043
3,CGGTCGTC,-0.0814
4,ACCATGGT,-0.15
5,ACTCTGAG,-0.216
6,GAGAACCA,0.0629
7,CACGGGAA,-0.137
8,ATACTCTC,0.0507
9,CCCCCACC,-0.31
10,ATACCCCC,-0.197
11,CGGGAAAC,0.0593
12,CCTAGGTA,-0.0825
13,AGGCTCAG,-0.161
14,GGCGGAAA,0.156
15,TGAACGAA,-0.00471
16,CAAGTGAA,0.0241
17,ATACACCC,0.0511
18,TAGAACGA,0.0857
19,ACTCCGCC,0.438
20,ACTCACCC,0.108
21,ACGACAGG,-0.0395
22,AATATGTA,0.193
23,AGGTTCGC,-0.164
24,TAATCGCA,-0.0128
25,AGTCAGAG,0.041

row,Sequence,PBM E-score
1,AGCGTTGC,0.106
2,AAGAGAAG,-0.0209
3,AGTGTTGC,0.0842
4,CAACGGCG,-0.0804
5,CATCCCTC,0.0831
6,ATCATTGG,0.00019
7,GGAGTCCA,0.217
8,TAATTAAA,0.235
9,TAAATGCA,0.162
10,AGGTTCCA,-0.075
11,AGGCAGAT,-0.0134
12,CCTCCAGA,-0.0481
13,AATGCGGT,0.0457
14,CGGCAAAC,0.178
15,ACATCGCT,-0.128
16,GGACTGTA,0.0855
17,ACTCGGGG,0.0947
18,ACGAAGTA,-0.073
19,GCTCAGGA,-0.0744
20,AAAGTGTT,0.176
21,GGACCACA,-0.0349
22,CGTTTTAG,-0.0873
23,GACTTCGA,0.0715
24,CAGCTTCG,-0.0303
25,GCGAGTTA,0.136

row,Sequence,PBM E-score
1,GATTTAGA,0.0771
2,CGCAACCG,-0.034
3,AGTCCGCC,0.375
4,CACGTACA,-0.176
5,ATAGTAAG,0.183
6,AGCGAGGC,-0.185
7,CGGGGTGA,0.177
8,AAGCGTAC,-0.177
9,AATCTATA,0.281
10,ATAGGATG,0.0582
11,CGTAAATC,0.0899
12,CATTGGAC,-0.0502
13,AGCCTACG,-0.109
14,ACTGTGCA,-0.104
15,TGAGGCCA,-0.00211
16,CCTTTTTA,0.114
17,CGAGGTTA,0.0207
18,GAGGGAGA,-0.268
19,CGCCCTGC,-0.141
20,AAAACCTC,0.181
21,CAGTGCTC,-0.022
22,ATTAAGCA,0.00396
23,AAGCTTAC,0.0195
24,TCGGTGAA,0.0263
25,TAACATGA,0.118

row,Sequence,PBM E-score
1,GGAACACA,-0.0182
2,ACCCCCGG,-0.0829
3,AAGAGCGC,-0.0157
4,CGTTAAAA,0.152
5,CGGGTAAG,-0.17
6,ACTATCCC,-0.119
7,GCCGTATA,0.193
8,CATGGAGC,-0.166
9,GCACCTCC,-0.204
10,CTTGGAGC,-0.0411
11,CACTGCCC,-0.193
12,AGGCGGCG,-0.206
13,CGGCCGTC,-0.138
14,CATCCGAA,0.151
15,AAAGCGGA,0.129
16,TCACCAGA,-0.224
17,GGGTAGCA,-0.206
18,GGTCGTTA,-0.0964
19,CCCCGCTA,-0.00288
20,ATTGTCAC,0.141
21,GCCCAATA,-0.0138
22,AGAGACCG,-0.171
23,CCTAACCA,0.0768
24,AGCGACGA,-0.145
25,TACCATAA,0.0703

row,Sequence,PBM E-score
1,GGGACGAC,0.00063
2,TACAATAA,0.213
3,ATGTTGCA,-0.0682
4,AAAGGTCA,-0.135
5,GTGCCACA,-0.28
6,ATCTTACA,0.12
7,CTCATCCA,-0.124
8,TTGGGAAA,0.101
9,CCCGGTAG,0.0344
10,GGCGCACA,-0.147
11,GACGAGAA,0.0679
12,AGAAAAGC,0.155
13,TAATATCA,0.306
14,CGTAAAGC,-0.15
15,AGGACACT,-0.0667
16,ACCGAGCC,0.0511
17,CCAATCGG,-0.0231
18,TACTAGGA,0.0617
19,CTTTCGTC,-0.0686
20,AAATCTTA,0.11
21,CTGACATA,-0.144
22,ACTATTCG,0.149
